Out of some 310,000 compounds screened, about 14,000 (4.5%) showed an effect of 50% or more. The effect is printed as a negative number. The list shows a part of the results.
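Further: peak tail current of the secondary pulse compared with the same well before compound.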

Chain of human ether-à-go-go-related gene (hERG) potassium channel (Q12809 whole entry, looked up): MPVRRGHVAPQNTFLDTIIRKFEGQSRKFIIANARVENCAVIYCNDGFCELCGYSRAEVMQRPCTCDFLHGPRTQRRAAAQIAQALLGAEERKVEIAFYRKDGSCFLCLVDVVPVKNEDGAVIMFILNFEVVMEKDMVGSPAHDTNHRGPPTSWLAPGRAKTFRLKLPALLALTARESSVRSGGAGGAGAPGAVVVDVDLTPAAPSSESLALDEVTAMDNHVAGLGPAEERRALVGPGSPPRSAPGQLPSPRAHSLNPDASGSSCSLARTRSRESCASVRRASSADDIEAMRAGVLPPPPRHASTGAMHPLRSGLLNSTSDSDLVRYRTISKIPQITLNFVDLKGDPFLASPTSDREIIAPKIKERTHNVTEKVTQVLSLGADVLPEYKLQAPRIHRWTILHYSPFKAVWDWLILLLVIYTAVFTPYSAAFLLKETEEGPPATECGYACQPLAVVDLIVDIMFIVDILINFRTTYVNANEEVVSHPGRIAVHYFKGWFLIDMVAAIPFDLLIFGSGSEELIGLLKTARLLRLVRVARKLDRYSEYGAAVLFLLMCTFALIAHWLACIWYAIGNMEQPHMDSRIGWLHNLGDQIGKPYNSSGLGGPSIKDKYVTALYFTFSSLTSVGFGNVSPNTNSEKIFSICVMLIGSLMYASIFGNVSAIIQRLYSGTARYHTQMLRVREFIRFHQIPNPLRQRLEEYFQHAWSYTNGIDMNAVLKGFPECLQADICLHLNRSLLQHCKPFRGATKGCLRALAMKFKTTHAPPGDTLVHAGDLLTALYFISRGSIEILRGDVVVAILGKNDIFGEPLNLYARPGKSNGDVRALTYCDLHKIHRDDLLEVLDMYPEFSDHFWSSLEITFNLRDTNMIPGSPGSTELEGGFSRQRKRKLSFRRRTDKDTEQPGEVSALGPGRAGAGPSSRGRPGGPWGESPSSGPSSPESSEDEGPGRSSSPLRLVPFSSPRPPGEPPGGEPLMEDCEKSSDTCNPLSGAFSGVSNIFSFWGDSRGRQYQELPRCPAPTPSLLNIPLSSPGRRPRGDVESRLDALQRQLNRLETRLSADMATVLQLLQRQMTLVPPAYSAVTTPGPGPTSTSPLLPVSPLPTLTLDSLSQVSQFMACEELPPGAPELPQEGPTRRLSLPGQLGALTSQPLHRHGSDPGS

The test concerns the target human ether-à-go-go-related gene (hERG) potassium channel (human, UniProt Q12809). Kind of test: primary screen, population patch clamp on CHO cells stably expressing hERG.
Consider `COC(=O)c1ccccc1N=Nc1c(C)[nH][nH]c1=O`, for which the “hERG current change (%, negative = inhibition) at 10uM” value was -9.31%.

For the molecule `O=c1cc(NCc2ccco2)[nH]c(=O)n1-c1ccc(Br)cc1`, the “hERG current change (%, negative = inhibition) at 10uM” value is given as 1.29%.

As to `C=C(C)C1CC=C(C)/C(=N/NC(=O)c2ccc(NC(=O)CCC)cc2)C1` (stereo not drawn), the “hERG current change (%, negative = inhibition) at 10uM” value was -7.54%. Turning to `O=C(CN1CCc2ccccc2C1)Nc1ccc(Br)cc1`, the “hERG current change (%, negative = inhibition) at 10uM” value is recorded as -34.2%. Take `Cc1ccc2c(c1)N(C(=O)NC1CCCCC1)C(C)(C)CC2C` (stereo not drawn): the “hERG current change (%, negative = inhibition) at 10uM” value was -14%. Regarding `Cc1ccc(Cn2c(C3CCCN3c3nc(-c4cc(Cl)c(N)c(Cl)c4)cs3)nc3cc(C(=O)NCCCO)ccc32)cc1` (stereo not drawn), the “hERG current change (%, negative = inhibition) at 10uM” value amounted to 12.2%.

As for `O=C(CSc1nnc(NC2CCCCC2)s1)Nc1ccc2c(c1)C(=O)c1ccccc1C2=O`, the “hERG current change (%, negative = inhibition) at 10uM” value worked out at 9.89%. Turning to `O=C(NC1CCCC1)C(c1ccccc1)N(Cc1ccco1)C(=O)Cc1cccs1` (stereo not drawn), the “hERG current change (%, negative = inhibition) at 10uM” value is recorded as -7.87%. For the molecule `CCOc1c(Br)cc(CNc2ncn[nH]2)cc1OC`, the “hERG current change (%, negative = inhibition) at 10uM” value stood at 2.2%. Turning to `CCCc1cc(NCCCN2CCOCC2)n2c(nc3ccccc32)c1C#N`, the “hERG current change (%, negative = inhibition) at 10uM” value was -75.7%. Consider `CC1(C)C(=O)NCCN1C(=O)CCCC(=O)O`, for which the “hERG current change (%, negative = inhibition) at 10uM” value came out at 8.77%. For `O=C(CSc1nnnn1-c1ccccc1)Nc1ccc(Cl)cc1`, the “hERG current change (%, negative = inhibition) at 10uM” value was -21.2%. For the molecule `C=CCn1c(O)c(C(CC)=NC2CC2)c(=O)[nH]c1=O`, the “hERG current change (%, negative = inhibition) at 10uM” value is -12%.

Consider `Cc1ccc(NC(=O)c2nnn(-c3ccc4c(c3)OCCO4)c2N)cc1`, for which the “hERG current change (%, negative = inhibition) at 10uM” value amounted to 9.9%. As to `CCCCc1nc2ccccc2c(=O)n1-c1ccccc1[N+](=O)[O-]`, the “hERG current change (%, negative = inhibition) at 10uM” value is -8.32%.

As to `Cc1cc(C)c(Cn2c3ccccc3c3cnn(CC(=O)NCCN4CCOCC4)c(=O)c32)c(C)c1`, the “hERG current change (%, negative = inhibition) at 10uM” value is reported as 2.31%. For `COc1ccc2c(c1OC)C(=O)OC2CC(=O)c1ccc(O)cc1` (stereo not drawn), the “hERG current change (%, negative = inhibition) at 10uM” value is reported as -3.43%. In the case of `CCOC(=O)c1c(NC(=O)CSc2n[nH]c(-c3ccco3)n2)sc(C)c1C`, the “hERG current change (%, negative = inhibition) at 10uM” value turned out to be 11.8%. The value for `CC(=O)c1ccc(NC(=O)CCc2c(C)nn(-c3ccc(N4CCOCC4)nn3)c2C)cc1` was -8.54%; that for `O=C(O)CCCc1nc(-c2ccc(Cl)cc2)no1` was 2.35%. With `Cc1ccsc1C1C(C#N)=C(N)OC2=C1C(=O)CC(C)(C)C2` (stereo not drawn), the “hERG current change (%, negative = inhibition) at 10uM” value is -6.69%. With `CC(=O)[C@H]1[C@H](C#N)C[C@H]2[C@@H]3CC=C4C[C@@H](O)CC[C@]4(C)[C@H]3CC[C@@]21C`, the “hERG current change (%, negative = inhibition) at 10uM” value was 19%.

Turning to `COC(=O)c1ccc(C(=O)OC)c(NC(=O)c2cccnc2)c1`, the “hERG current change (%, negative = inhibition) at 10uM” value was determined as 8.65%.

As to `Cc1c2cn[nH]c(=O)c2c(C)n1Cc1ccc(F)cc1`, the “hERG current change (%, negative = inhibition) at 10uM” value is on record as -5.17%. Consider `O=C(CN1CCN(Cc2ccccc2Cl)CC1)N/N=C/c1cccs1`, for which the “hERG current change (%, negative = inhibition) at 10uM” value is given as -20.4%.

For `O=C(/C=C/Nc1cccc(C(F)(F)F)c1)c1ccco1`, the “hERG current change (%, negative = inhibition) at 10uM” value is given as 6.62%. As to `CCCCc1nnc(NC(=O)CSc2nc(N)cc(=O)[nH]2)s1`, the “hERG current change (%, negative = inhibition) at 10uM” value worked out at 25.7%. Take `C#CC[N+]1(C)[C@@H]2CC(OC(=O)C(CO)c3ccccc3)C[C@H]1C(O)C2.[Br-]` (stereo partly drawn): the “hERG current change (%, negative = inhibition) at 10uM” value came to 7.98%. Take `COc1ccc(Cl)cc1C(=O)CSc1nc(N)cc(N)n1`: the “hERG current change (%, negative = inhibition) at 10uM” value came out at 0.369%. The value for `O=C(NCCO)/C(=C\c1ccco1)NC(=O)c1ccco1` was 1.44%; that for `CN(Cc1cc(=O)n2ccsc2n1)Cc1nc2ccccc2c(=O)[nH]1` was -0.504%. Take `NC(=O)c1ccccc1NC(=O)CCCCCn1nnc2ccccc2c1=O`: the “hERG current change (%, negative = inhibition) at 10uM” value is listed as -19%. For `CN1CCN(c2ccc(NC(=O)c3cc([N+](=O)[O-])ccc3N3CCOCC3)cc2)CC1`, the “hERG current change (%, negative = inhibition) at 10uM” value is reported as -2.4%.

As to `NC(=S)COc1ccccc1`, the “hERG current change (%, negative = inhibition) at 10uM” value is listed as 17.3%.

As for `CC(c1nc2ccccc2c(=O)[nH]1)N(C)CCOc1ccc(Cl)cc1` (stereo not drawn), the “hERG current change (%, negative = inhibition) at 10uM” value is -39.2%. Regarding `COc1cc(-c2nc3ccccn3c2/N=C/c2cccc(OC)c2O)ccc1O`, the “hERG current change (%, negative = inhibition) at 10uM” value was -7.33%. The value for `CC(C)Oc1ccc(C2CC(=O)N(c3cccc(C(=O)O)c3)C2=O)cc1` (stereo not drawn) was 6.14%. As for `Cc1nonc1C(=O)N/N=C/c1ccc(O)cc1O`, the figure is 14%. Consider `COc1cccc(-n2nnc3c(=O)n(C/C=C/c4ccccc4)cnc32)c1`, for which the “hERG current change (%, negative = inhibition) at 10uM” value is given as -15.9%. Consider `C=CCC1(N(C(C)=O)c2ccccc2)CCCCC1`, for which the “hERG current change (%, negative = inhibition) at 10uM” value amounted to 5.28%. With `CCCCc1c(C)nc(N)[nH]c1=O`, the “hERG current change (%, negative = inhibition) at 10uM” value is 18.3%. Turning to `Cc1c(N=C(N)/N=C(\N)Nc2ccccc2)c(=O)n(-c2ccccc2)n1C`, the “hERG current change (%, negative = inhibition) at 10uM” value is 5.99%. As for `COc1ccc(C(=O)C(C)OC(=O)c2sc(C)nc2C)cc1` (stereo not drawn), the “hERG current change (%, negative = inhibition) at 10uM” value was 4.58%. Turning to `CCCn1c(SCc2nc(N)nc(N3CCCCC3)n2)nc2c1c(=O)n(C)c(=O)n2C`, the “hERG current change (%, negative = inhibition) at 10uM” value is 0.163%. The value for `Cc1c(C(C)C)c(=O)n(-c2ccc(S(=O)(=O)N3CCOCC3)cc2)n1C` was 17.4%; that for `COc1ccc(CCNC(=O)CSc2nnc(-c3ccccc3)o2)cc1OC` was -11.1%. For `Cc1ccc(Cn2ccc(NC(=O)CCSc3nc(-c4ccco4)cc(C(F)(F)F)n3)n2)cc1`, the “hERG current change (%, negative = inhibition) at 10uM” value is reported as 6.84%. `Cc1ccc(-n2c(CCc3ccccc3)n[nH]c2=S)cc1C`: the “hERG current change (%, negative = inhibition) at 10uM” value is reported as 17.1%. On to `CCOC(=O)c1cc2c(=O)c3cc(C)ccc3oc2nc1C`, for which the “hERG current change (%, negative = inhibition) at 10uM” value was 14.3%. Consider `N#CC1=C(N)Oc2n[nH]c(-c3cccs3)c2C1c1ccco1` (stereo not drawn), for which the “hERG current change (%, negative = inhibition) at 10uM” value amounted to 10.6%. As for `COc1ccc(-n2c(SCC(=O)NCCCN3CCCC3=O)nnc2C(C)N2CCCCC2)cc1` (stereo not drawn), the figure is 43.4%. Turning to `COc1ccccc1C(=O)Nc1ccc(N2CCCCC2)cc1`, the “hERG current change (%, negative = inhibition) at 10uM” value is given as -9.04%. On to `CCOc1ccc(-n2c(O)c(C=Nc3ccc(NC(C)=O)cc3)c(=O)[nH]c2=O)cc1`, for which the “hERG current change (%, negative = inhibition) at 10uM” value is given as -0.319%. As to `N#CC1=C(N)N(c2ccc(Oc3ccccc3)cc2)C(=O)C1`, the “hERG current change (%, negative = inhibition) at 10uM” value is recorded as -18.4%. Take `COc1ccc(CCNC(=O)C2CCC(CNS(=O)(=O)c3ccc(F)cc3)CC2)cc1OC` (stereo not drawn): the “hERG current change (%, negative = inhibition) at 10uM” value amounted to 21.3%. Turning to `O=C(NNc1ccccc1[N+](=O)[O-])Nc1cccc(Cl)c1`, the “hERG current change (%, negative = inhibition) at 10uM” value was 19.3%. As for `CCOC(=O)[C@@H]1[C@H]2COc3cc(OC)ccc3[C@@H]2N2C(=O)N(c3ccc(C)cc3)C(=O)[C@]12C`, the figure is -2.33%.
